Sequences and labels used below:
T1: UNK ZnF1-3 (human, UniProt Q9C0B0 31-174)
T1 sequence: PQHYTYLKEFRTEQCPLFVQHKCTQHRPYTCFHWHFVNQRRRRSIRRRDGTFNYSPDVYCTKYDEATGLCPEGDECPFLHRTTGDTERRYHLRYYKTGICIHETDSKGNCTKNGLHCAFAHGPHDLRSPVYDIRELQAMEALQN

B1: 118282969_118287507_3832_CDS_ENSMUSG00000005102_ENSMUST00000005233|mouse|control|control (ssRNA)
RNA: GGGAGUUCUACAGUCCGACGAUCUUGCAAAUCCCCCUUCUGCUCAAUGAACUUGUAGAGUCUACACAGGCUAUUAGAAGACAAGGACAGGUUACAGAAUUUAGCUUCCACUUCUCUCCUAGUCAGCUUCUCUGUCACAGCAUCCAACAGAGGAUUGAGCAUCA
B2: chr16:94664741:94664742:+_ENSMUSG00000040785_ENSMUST00000117648|mus_hu|mus_mus_mus_hu_False|8_18 (ssRNA)
RNA: GGGAGUUCUACAGUCCGACGAUCUGGUACUGAUCUUGGUAGCUGAUAUUCAGGAGAAAGGCUGGCCAAGGGUGUAUAUAUGCUGGUGUACUGGGGCAAACCUGGUAACACGUUUAUGUACGCUGGUCGCUGGGUGAUGAUAUCCAACAGAGGAUUGAGCAUCA
B3: chr8:95500983:95500984:-_ENSG00000164944_ENST00000437199|hu_hu|hu_hu_hu_mus_True|48_48 (ssRNA)
RNA: GGGAGUUCUACAGUCCGACGAUCAGAACACAUCUAUCGAGUAAAGGACCGUACAUGACGGCCUCUACCACUGCCUCCACUAACAAAACUUUCCUCUGAGCCUCCACUGCCGCUAUUUGUACUAGCCCAGGACGGUCCCAGGCCCAACAGAGGAUUGAGCAUCA
B4: 196581701_196592893_2262_CDS_ENSG00000196950_ENST00000359634|human|control|control (ssRNA)
RNA: GGGAGUUCUACAGUCCGACGAUCUGCAAAAUCUCCUAAUUCAUGUGGCAGUUCAUGACAGAAGACGGCUAUAGAAGUACUGAUUCCUCCUGUCAAUCCAGCACUGAAAGCUGCACCAAUUGCGAGCCCAUCACUGAAGUUGUGCAACAGAGGAUUGAGCAUCA
B5: chr10:133753640:133753641:+_ENSG00000175470_ENST00000482010|hu_hu|FALSE|FALSE (ssRNA)
RNA: GGGAGUUCUACAGUCCGACGAUCAGUUUUAUCAUUUGUAGACAGUAGAAAAUGAGCAGCAUUCUGUUGUGGUAACCACCUAAUUUUAUUAAUUUUUUCCUCAAUUUCUAGACUUUUCAAAUAGUCAAACUCCGGUUCAUGACUCAACAGAGGAUUGAGCAUCA
B6: 35547811_35555593_947_CDS_ENSG00000101347_ENST00000262878|human|control|control (ssRNA)
RNA: GGGAGUUCUACAGUCCGACGAUCCUUUAUAAAGCAAAUAUCUUCUUCAGGGAUGAGACCAUAUUGUUCCAUGACAGGCUUAAUUCCAUUAGAAUUAAUAAGGUGCUCAAACAUCAUAACUGAGCCUUGUUCAUGCGUCCAUUUCAACAGAGGAUUGAGCAUCA
B7: chr3:176740097:176740098:-_ENSG00000177565_ENST00000430069|hu_mus|hu_hu_hu_mus_True|18_78 (ssRNA)
RNA: GGGAGUUCUACAGUCCGACGAUCUGUUUUGUAUACCACAAAAGGAGGCACUUUCAGUAUCUGUAAAAGGUGUUUAGUCCUAAAACAUACUCACCUAGAGGAUAACUCAGGAAAACAUCAAUACAAUCUCUAAGACCUACUCCACAACAGAGGAUUGAGCAUCA
B8: chr19:15979567:15979568:-_ENSMUSG00000024640_ENSMUST00000025542|mus_mus|FALSE|FALSE (ssRNA)
RNA: GGGAGUUCUACAGUCCGACGAUCACAGGCUAAUUUUAAACCCUAGGCUCCCCAUCAGAAUGUUUAAAAGCAGCACCUGACUAAAAAAGCAAGCAGAAUAAUUCACAGGCAAUGAAUGGCUUAGAUGACUUAGGACUUUAAUGUCAACAGAGGAUUGAGCAUCA
B9: chr8:74527950:74527951:-_ENSG00000040341_ENST00000355780|hu_hu|FALSE|FALSE (ssRNA)
RNA: GGGAGUUCUACAGUCCGACGAUCUUCUUUAAUAACCUCAAAACUGACAGGCAUAUUUCGCUUCAGAGCAAUUUCAAACACUAAGCUGAUCUCAGACUUAUUUGCAUCUUUGUCAUCAUCCACAUCCUUUCCUGAUUCACCAUUCAACAGAGGAUUGAGCAUCA
B10: chr5:138643207:138643208:+_ENSG00000015479_ENST00000510056|hu_mus|FALSE|FALSE (ssRNA)
RNA: GGGAGUUCUACAGUCCGACGAUCCAUCCUUCCAAGAGAUGCUGGCAUACUUAAAGACUGGGUAGCAGCAGCAAGAAGGCCUAUUCCUGCUGCAGACAGGUCACGCCCAUGACCCUGUGAAUCCCUACCGAGAGAUGACUGCUGCAACAGAGGAUUGAGCAUCA
B11: 134880011_134880840_2373_CDS_ENSMUSG00000028809_ENSMUST00000105861|mouse|control|control (ssRNA)
RNA: GGGAGUUCUACAGUCCGACGAUCUGGUGAGGCAGCCUUUUUUAUCUUUUUGGGCUCCGGGGUCCUGGAGACUCUCCUAAUAGGCCUAGUACUUGGAGAUGGGGACUGCCUUCCUUGGGGUGACGCUGAAGCUCCUCUUCGUACCAACAGAGGAUUGAGCAUCA
B12: chr4:184596322:184596323:+_ENSG00000168538_ENST00000334690|hu_mus|motif|central (ssRNA)
RNA: GGGAGUUCUACAGUCCGACGAUCGGCGUUUUGUGUAUCUUGUUUCAACUCACUGAAGAAAGCUAUUUUAAACUGAUGUCGGACAAACAAAAGCUGGUGUGUUGUUUUAUUCAAAAAUUCCUUAUGAGAUUUCACUCUUCUGAUCAACAGAGGAUUGAGCAUCA
B13: 38126866_38126986_902_3pUTR_ENSG00000120784_ENST00000514101|human|control|control (ssRNA)
RNA: GGGAGUUCUACAGUCCGACGAUCCCACAUUCUUUACAUUCAUAGGGUUUCUCACCAGUAUGAAUUCUUUGAUGGAAAGUAAGUUGUUGUCGUACUCUAAAAGCCUUCCCACAUUCCCCACAUUCGUAGGGUUUCUCUCUGUUACAACAGAGGAUUGAGCAUCA
B14: chr18:77179482:77179483:+_ENSMUSG00000090000_ENSMUST00000026487|mus_hu|FALSE|FALSE (ssRNA)
RNA: GGGAGUUCUACAGUCCGACGAUCGUCCUGGAGAGUUACUGCCUUUCAUGAUCUGAUCUUUUGUAAUGAAACUACAAGUGCAACAUUAAAAAAAAAAACAGAUAAAUAGAAACCCUGGUUUUAUUUUCAGCUUUACAUUUUUGACAACAGAGGAUUGAGCAUCA

The other results are listed elsewhere or left out.

We go through 14 molecules from publication PMC12136788.

For the assay, the target named is T1, UNK ZnF1-3. Nature of the assay: nsRBNS (natural sequence RNA bind-n-seq); RBNS binding buffer (assumed for nsRBNS): 25 mM Tris pH 7.5, 150 mM KCl, 3 mM MgCl2, 0.01% Triton X-100, 500 ug/ml BSA, 20 U/ml SUPERase-In, 4 C; UNK is unkempt and MSI1 is Musashi-1; names of the RNAs are library labels; protein concentration not given here; high values mean tight binding.
For the molecule B1, the binding signal worked out at 1.19 enrichment R.

The molecule B2 gave a binding signal of 0.819 enrichment R.

Turning to B3, the binding signal turned out to be 1.08 enrichment R.

B4: the binding signal amounted to 1.09 enrichment R.

Consider B5, for which the binding signal is 1.52 enrichment R.

B6: the binding signal came to 1.15 enrichment R.

Consider B7, for which the binding signal was determined as 0.898 enrichment R.

Molecule B8 came in with a binding signal of 2.3 enrichment R.

Turning to B9, the binding signal came out at 1.21 enrichment R.

Molecule B10 had a binding signal of 0.852 enrichment R.

As for B11, the binding signal was 0.714 enrichment R.

In the case of B12, the binding signal worked out at 1.15 enrichment R.

In the case of B13, the binding signal stood at 0.651 enrichment R.

For B14, the binding signal came to 0.969 enrichment R.
